About 2,200 (0.71%) of roughly 310,000 compounds showed an effect of 50% or more. The effect is printed as a negative number. The list shows a part of the results.
Each compound was assayed against human ether-à-go-go-related gene (hERG) potassium channel (human, UniProt Q12809) (assay: primary screen, population patch clamp on CHO cells stably expressing hERG).
Sequence of human ether-à-go-go-related gene (hERG) potassium channel (Q12809 whole entry, looked up): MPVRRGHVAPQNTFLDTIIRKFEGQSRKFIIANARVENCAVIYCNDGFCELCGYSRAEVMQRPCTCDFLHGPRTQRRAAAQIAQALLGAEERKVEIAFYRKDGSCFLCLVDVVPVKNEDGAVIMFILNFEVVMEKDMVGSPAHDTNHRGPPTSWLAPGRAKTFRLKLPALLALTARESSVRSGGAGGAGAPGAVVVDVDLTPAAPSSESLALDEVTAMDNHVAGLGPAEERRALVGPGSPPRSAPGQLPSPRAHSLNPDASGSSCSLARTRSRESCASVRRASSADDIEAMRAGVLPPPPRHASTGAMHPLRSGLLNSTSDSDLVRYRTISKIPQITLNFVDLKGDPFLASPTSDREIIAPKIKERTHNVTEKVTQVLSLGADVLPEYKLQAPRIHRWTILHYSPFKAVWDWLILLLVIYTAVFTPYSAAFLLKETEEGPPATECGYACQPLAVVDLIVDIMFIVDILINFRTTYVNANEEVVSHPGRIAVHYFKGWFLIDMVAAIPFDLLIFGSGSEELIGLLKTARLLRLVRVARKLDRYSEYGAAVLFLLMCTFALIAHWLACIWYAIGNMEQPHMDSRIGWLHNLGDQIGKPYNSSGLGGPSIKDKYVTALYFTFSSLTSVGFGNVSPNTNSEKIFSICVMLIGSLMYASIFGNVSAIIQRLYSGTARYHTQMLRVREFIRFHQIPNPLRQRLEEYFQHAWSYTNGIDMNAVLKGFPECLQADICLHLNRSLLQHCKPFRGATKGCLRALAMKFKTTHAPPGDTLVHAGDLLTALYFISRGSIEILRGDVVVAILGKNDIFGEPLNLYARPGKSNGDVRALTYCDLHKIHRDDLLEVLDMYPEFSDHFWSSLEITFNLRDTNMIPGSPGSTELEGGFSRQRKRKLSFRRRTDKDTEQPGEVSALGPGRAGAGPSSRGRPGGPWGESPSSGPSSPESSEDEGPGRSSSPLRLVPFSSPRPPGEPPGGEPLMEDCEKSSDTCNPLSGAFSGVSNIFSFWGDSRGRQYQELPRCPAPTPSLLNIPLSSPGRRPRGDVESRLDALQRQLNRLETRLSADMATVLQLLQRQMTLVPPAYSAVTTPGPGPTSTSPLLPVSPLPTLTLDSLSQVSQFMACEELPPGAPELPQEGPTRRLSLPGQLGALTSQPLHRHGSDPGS

Row | SMILES | hERG current change (%, negative = inhibition) at 1uM [%]
1 | Cc1ccc(CSc2nnc(NC(=O)C3=COCCO3)s2)cc1 | 8.12
2 | CC(=O)NNc1nc2ccccc2s1 | 5.36
3 | COc1ccc(NC(=O)CCCNC(=O)Cn2cnc3sc4c(c3c2=O)CCCC4)cc1OC | 19.9
4 | CCOc1ccc2nc(N=NC3=C(O)CC(C)(C)CC3=O)sc2c1 | 18.3
5 | CC(C)Oc1ccc(C(=O)NCCCNC(=O)c2cccnc2)cc1 | 10.5
6 | COc1cc(C=O)ccc1OCC(=O)N1CCCC1 | 7.18
7 | COc1ccc(NC(=O)c2nc[nH]c2C(=O)NCc2ccccc2)cc1 | 12
8 | Cc1ccc(NC(=O)COC(=O)CNC(=O)c2ccco2)cc1 | 6.59
9 | Cc1ccc2[nH]c(O)c(N=NC(=O)CCc3ccccc3)c2c1Br | 8.03
10 | Cc1[nH]c2ccccc2c1C(O)CN1CCN(c2cccc(C(F)(F)F)c2)CC1 (centres unmarked) | 3.76
11 | Cc1cccc(Nc2c(-c3ccc(O)cc3)nc3ncccn23)c1 | 13.5
12 | COc1cccc(NC(=O)CN(C)C(=O)c2cc(C3CC3)nn2-c2ccccc2)c1 | 8.88
13 | O=C(CSc1nc2ccccc2c(=O)n1Cc1ccco1)c1ccc(F)cc1 | 12.6
14 | C=CCNc1nc(C(=O)OCC(=O)c2ccccc2)cs1 | 7.88
15 | COCCCNc1nc2cc(OC)c(OC)cc2c2nc(-c3ccccc3)nn12 | 18.4
16 | Cc1ccc(-c2csc3ncn(CC(=O)N4CCOCC4)c(=O)c23)cc1 | 4.32
17 | O=C(c1ccccc1)N1CCc2ccccc21 | 5.7
18 | Cc1sc2nc(C(C)C)nc(SCC(=O)NC3CC3)c2c1C | 14.5
19 | CC(C)Nc1nc(NC(C)C)nc(N(C)N)n1 | 3.03
20 | COc1cc(CNc2ccc(N3CCOCC3)c(C(=O)O)c2)ccc1OCC(N)=O | -5.34

Row | SMILES | hERG current change (%, negative = inhibition) at 1uM [%]
21 | CC[C@@]1(O)C(=O)OCc2c1cc1n(c2=O)Cc2cc3c(N)cccc3nc2-1 | 2.74
22 | CCOC(=O)c1c(NC(NC(=O)CF)C(Cl)(Cl)Cl)sc2c1CCCC2 (centres unmarked) | 1.03
23 | O=C1COc2ccc(C(=O)COC(=O)c3ccc(Cl)cc3[N+](=O)[O-])cc2N1 | -11.6
24 | COc1ccc(CN2CCN(C(=O)c3cccs3)CC2)cc1Br | -10.9
25 | COc1ccc(NC(=O)CCCc2ccc(OC)c(C)c2)cc1 | 2.91
26 | CCc1nnc(NC(=O)CSc2nncc(=O)n2N)s1 | 16.4
27 | CC1CCCCN1C(=O)CSc1nnc(CSc2ncccn2)n1C (centres unmarked) | 17.1
28 | CN(C)NC(=S)NC1CC2CCC1C2 (centres unmarked) | 4.86
29 | O=C(NCC(F)(F)F)Nc1ccccn1 | 0.0705
30 | C/C(Cl)=C\COc1cc(C)nc2c(Br)cccc12 | 13
31 | COc1ccccc1NC(=O)CSc1nnc(CCC(=O)Nc2ccccc2F)n1C | 17.4
32 | Cl.O=C(CNCCO)NC12CC3CC(CC(C3)C1)C2 | 12.8
33 | CCC(C)(C)NC(=O)CN(C(=O)c1snc(C(N)=O)c1N)c1ccc2nc(C)sc2c1 | 12
34 | COc1ccc(CCn2c(NCc3ccco3)nc3c2c(=O)[nH]c(=O)n3C)cc1 | 16.6
35 | CC(C(=O)OCC(=O)Nc1cccc(S(=O)(=O)N(C)C)c1)N1C(=O)c2ccccc2C1=O (centres unmarked) | 7.02
36 | COCC(=O)N(Cc1nc2sc(C)c(C)c2c(=O)[nH]1)C1CCCCC1 | 4.45
37 | Cc1ccc(S(=O)(=O)NCC(=O)OCC(=O)N2CCN(C(=O)c3ccco3)CC2)cc1C | -5.38
38 | CC(OC(=O)CCc1c[nH]c2ccccc12)C(=O)c1ccccc1 (centres unmarked) | 6.37
39 | CCCOc1cccc(C(=O)N/N=C/c2ccoc2)c1 | 9.43
40 | COc1ccc(OC)c(/C=N/NC(=O)c2[nH]ncc2Br)c1 | 7.79

Row | SMILES | hERG current change (%, negative = inhibition) at 1uM [%]
41 | O=S(=O)(c1ccccc1Cl)N1CCC(O)(c2ccc3c(c2)OCO3)CC1 | 4.94
42 | O=C(N/N=C/c1ccncc1)c1cccc(S(=O)(=O)Nc2ccc(Cl)cc2)c1 | 7.53
43 | Cc1ccc(OCCNC(=O)CCc2nc3sc4c(c3c(=O)[nH]2)CCCC4)cc1 | 14.6
44 | C/C=C/c1ccc(OCC(=O)Nc2ccc(OC)c(OC)c2)c(OC)c1 | 9.62
45 | Fc1ccc(CSc2nnc(-c3ccncc3)o2)cc1 | 16.5
46 | CC(=O)c1ccc2oc3ccccc3c(=O)c2c1 | 8.94
47 | O=C(O)c1ccccc1C(=O)Nc1cc(-c2ccccc2)[nH]n1 | 11.1
48 | Cc1ccc(-c2nc(CSCC(=O)Nc3cc(C)on3)c(C)o2)cc1 | 16
49 | CN(C)S(=O)(=O)N(CC(=O)N1CCN(c2ccccc2F)CC1)c1ccccc1 | 8.68
50 | CC(=S)/C=C1\Sc2ccccc2N1C | 5.22
51 | COC(=O)Cn1nc(-c2ccc(C)cc2)c2ccccc2c1=O | -0.0939
52 | COc1ccc(CCNC(=O)CCc2cn(C)c3ccccc23)c(OC)c1OC | 4.67
53 | COc1ccc(N(CC(=O)NCCSC2CCCCC2)S(=O)(=O)c2ccc(C)cc2)cc1 | 11.6
54 | Cc1ccc(S(=O)(=O)c2c[nH]c3ccc(C)cc3c2=O)cc1 | 14.7
55 | O=C(Nc1ccc(S(=O)(=O)N2CCOCC2)cc1)c1ccc(F)cc1 | 6.1
56 | Cc1cc(C=C(C#N)C#N)c(C)n1-c1ccccc1 | 6.19
57 | CC1Cc2ccccc2N1C(=O)c1ccc2snnc2c1 (centres unmarked) | 0.715
58 | CC(C)n1cnnc1SCC(=O)NC(=O)c1ccccc1 | 4.17
59 | COc1cccc(-c2nc(CS(=O)(=O)CC(=O)NCc3ccccc3OC)c(C)o2)c1 | 14.2

From PMC4336329 (PLoS ONE, 2015)
